{
  "source": "PubChem BioAssay AID2546",
  "about": "(National Center for Advancing Translational Sciences (NCATS), 2010)",
  "note": "The whole screen tested about 310,000 compounds, of which about 11,000 (3.5%) were called active. This list was built around the results that the source calls inconclusive (neither active nor inactive); the mix of calls is not that of the screen. The call rests on the fitted dose curve; in most records, active means well fitted inhibition curve with a large enough effect; inconclusive means small, poorly fitted or top-dose-only effect, or effect the other way; inactive means flat fitted curve, though single readings scatter. Potencies of inconclusive entries are left out as doubtful fits. On the % scale 0 is the no-effect control and ±100 the full control effect; potency means the concentration at half of the fitted maximal effect; tags describe the fitted curve by direction and shape.",
  "data": [
    {"assay": "VP16 counterscreen qHTS for inhibitors of ROR gamma transcriptional activity;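 further: Gal4-VP16 expression switched on by copper sulfate through the metallothionein promoter; nearly all actives have a fitted effect of over 50% in size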", "conditions": "Drosophila S2 Gal4-VP16 UAS-luciferase, luminescence, 20 h; activity, negative = inhibition: at 53.6 µM (top of the series)", "values": [
      {"smiles": "CC1CCN(C(=S)Nc2ccc(F)cc2)CC1", "Potency": "inconclusive [inhibitor, single point]"},
      {"smiles": "COc1ccc(-c2csc(C)n2)cc1", "Potency": "inconclusive [activator, partial curve]"},
      {"smiles": "CCCC(=O)Nc1ccc(NC(=O)c2ccccc2)nc1", "Potency": "inconclusive [inhibitor, partial curve]"},
      {"smiles": "CCOC(=O)C1(CCOC)CCN(Cc2ccncc2)CC1", "Potency": "inactive"},
      {"smiles": "Cc1cnc(NC(=O)C2CCCC2)s1", "Potency": "inconclusive [inhibitor, single point]"},
      {"smiles": "Cc1cc(C)c2c(c1)/C(=N/NC(=S)Nc1ccc(F)cc1)CCC2", "Potency": "active: 15.8 µM"},
      {"smiles": "Cc1ccc(N2C(=O)C(O)(C(F)(F)F)C3=C2CC(C)(C)CC3=O)cc1C", "note": "(stereo unspecified)", "Potency": "inactive"},
      {"smiles": "CC(C)c1ccc(S(=O)(=O)N2CCN(C(=O)C3CCN(C(=O)c4ccc(F)cc4)CC3)CC2)cc1", "Potency": "inconclusive [inhibitor, single point]"},
      {"smiles": "COc1ccc(-c2csc(NC(=O)c3ccco3)n2)cc1", "Potency": "inactive"},
      {"smiles": "C/C(=N\\NC(=O)c1ccncc1)c1cccs1", "activity, negative = inhibition": "inactive: 29.1% [at 10 µM]"},
      {"smiles": "COc1ccc(-c2noc(CCC(=O)Nc3ccc(C)c(C)c3)n2)cc1", "Potency": "inconclusive [inhibitor, partial curve]"},
      {"smiles": "COc1ccc2[nH]c(=O)c(CN(Cc3ccccc3)C(=S)NCC3CCCO3)cc2c1", "note": "(stereo unspecified)", "Potency": "inconclusive [inhibitor, single point]"},
      {"smiles": "Cn1ncc2cc(NC(=S)NC(=O)c3ccccc3)ccc21", "Potency": "inconclusive [inhibitor, single point]"},
      {"smiles": "O=C(Nc1nnc(-c2ccncc2)o1)C1CCCCC1", "Potency": "inconclusive [inhibitor, single point]"},
      {"smiles": "CC(/C=C/c1ccc2c(c1)OCO2)=N/NC(=O)c1ccc(C)nc1", "Potency": "active: 7.94 µM"},
      {"smiles": "COc1ccccc1C1CC(=O)Nc2c1c(=O)n(C)c(=O)n2C", "note": "(stereo unspecified)", "Potency": "inconclusive [inhibitor, single point]"},
      {"smiles": "COc1cccc(Nc2nc(-c3sc(NC(=O)c4ccccc4)nc3C)cs2)c1", "Potency": "inconclusive [inhibitor, single point]"},
      {"smiles": "O=C(Cc1ccccc1F)Nc1nc(-c2ccc(F)cc2)cs1", "Potency": "inactive"},
      {"smiles": "CC1CCN(CCCCOc2ccccc2Br)CC1", "Potency": "inconclusive [inhibitor, single point]"},
      {"smiles": "Oc1ccccc1/C=N/Nc1nccnc1Cl", "Potency": "inconclusive [inhibitor, single point]"},
      {"smiles": "O=C(N/N=C/c1ccc(O)c(Br)c1)c1cc2c(ccc3ccccc32)o1", "Potency": "inactive"},
      {"smiles": "CCOC(=O)c1[nH]c2c(c1C)C(=O)CC(c1ccc(N(C)C)cc1)C2", "note": "(stereo unspecified)", "Potency": "inconclusive [inhibitor, single point]"},
      {"smiles": "CCn1nc(C(=O)Nc2ccc3nc(C)sc3c2)c2ccccc2c1=O", "Potency": "inconclusive [inhibitor, single point]"},
      {"smiles": "CCC(O)(C#CCN1CCCCC1)CC", "Potency": "inconclusive [activator, single point]"},
      {"smiles": "O=C1CCCc2oc3ccc(NS(=O)(=O)c4cccc5cccnc45)cc3c21", "Potency": "inconclusive [inhibitor, single point]"},
      {"smiles": "CCN(CC)c1ccc(C(=O)N/N=C/c2ccccc2OC(F)F)cc1", "Potency": "inconclusive [inhibitor, single point]"},
      {"smiles": "Oc1ccc2ccccc2c1C=Nc1ccccc1Br", "Potency": "inactive"},
      {"smiles": "Cc1cc(C)n(-c2nc3ccccc3nc2Nc2ccc3[nH]c(=O)[nH]c3c2)n1", "Potency": "inconclusive [inhibitor, single point]"},
      {"smiles": "COc1cc(C)c(-c2[nH]ncc2-c2csc(C)n2)c(O)c1", "Potency": "inactive"},
      {"smiles": "CC(=O)c1ccc(OCc2cc(C(=O)N3CCN(c4ccccc4)CC3C)no2)cc1", "note": "(stereo unspecified)", "Potency": "inconclusive [inhibitor, full curve]"},
      {"smiles": "CN(C)CCCNC(=O)/C(=C\\c1ccc(-c2ccc(Br)cc2)o1)NC(=O)c1ccccc1", "Potency": "inconclusive [inhibitor, single point]"},
      {"smiles": "Cc1ccc(O)c(C=Nc2ccc3[nH]ncc3c2)c1", "Potency": "inconclusive [activator, single point]"},
      {"smiles": "CCCCS/C(N)=N/N=C/c1cc(C)ccc1O", "Potency": "active: 5.01 µM"},
      {"smiles": "CCN(CC)S(=O)(=O)c1ccc(NC(=O)COC(=O)c2cc(S(=O)(=O)Nc3ccc(OC)cc3)ccc2O)cc1", "Potency": "inconclusive [activator, single point]"},
      {"smiles": "Cc1cccc(C(=O)N/N=C/c2ccoc2)c1", "Potency": "inactive"},
      {"smiles": "O=C(Nc1ccc(NC(=O)c2sc3ccccc3c2Cl)cc1)c1ccco1", "Potency": "inconclusive [inhibitor, single point]"},
      {"smiles": "CCOC(=O)c1sc2nccc(N(C)C)c2c1N=CNOCc1c(F)cccc1Cl", "Potency": "inactive"},
      {"smiles": "Cn1c(COc2ccccc2Br)nc2ccccc21", "Potency": "inconclusive [inhibitor, single point]"},
      {"smiles": "CC(C)CN(CC(C)C)C(=O)c1cc2c(=O)n3ccccc3nc2s1", "Potency": "inactive"},
      {"smiles": "CC(C)(S)[C@H](N)C(=O)O", "Potency": "inactive"},
      {"smiles": "O=C(NC(=S)Nc1ccccc1)c1ccc(-c2ccccc2)cc1", "Potency": "active: 4.47 µM"},
      {"smiles": "O=[N+]([O-])c1ccc2c(c1)ncn2CCc1ccccc1", "Potency": "inactive"},
      {"smiles": "N#Cc1ccc(-c2ccco2)nc1SCc1ccccc1", "Potency": "inactive"},
      {"smiles": "CNC[C@@H](Cc1ccccc1)NC[C@@H](CC1CCCCC1)NCCCc1ccccc1", "Potency": "inconclusive [inhibitor, single point]"},
      {"smiles": "CC1=CC(C)(C)NC(=S)N1c1ccc(C)cc1C", "Potency": "active: 2.82 µM"},
      {"smiles": "Clc1cc(Cl)c(OCC#CI)cc1Cl", "Potency": "active: 5.62 µM"},
      {"smiles": "CC(C)C(Sc1nc(-c2ccccc2)cc(-c2ccccc2)c1C#N)C(=O)O", "note": "(stereo unspecified)", "Potency": "inconclusive [inhibitor, partial curve]"},
      {"smiles": "N#Cc1ccc(C(=O)Nc2nnc(-c3ccccn3)o2)cc1", "Potency": "active: 0.891 µM"},
      {"smiles": "Cc1nnc(N/N=C/c2cccs2)[nH]c1=O", "Potency": "inactive"},
      {"smiles": "O=C(COc1ccc(Br)cc1Br)NC(=S)Nc1cccc(CO)c1", "Potency": "active: 8.91 µM"},
      {"smiles": "Cc1cc(C(=O)N/N=C/c2c(C)nn(-c3ccccc3)c2C)c(C)o1", "Potency": "inconclusive [inhibitor, single point]"}
    ]}
  ]
}
